Laboratory results as given in the supplement of paper PMC3334620.
In all, about 33,000 sequences were measured (“E-score (-0.5 to 0.5)”: median about -0.012, highest 2% from about 0.27 on). The list shows a part of the results.

target: T1, Vhr1 (UniProt P40522); test: PBM E-score (8-mer binding enrichment) (E-score (-0.5 to 0.5)); higher = stronger / more preferred TF binding; most listed sequences are background and not binding sites; conditions: protein concentration: 200 nM; construct: GST-full length
T1 sequence: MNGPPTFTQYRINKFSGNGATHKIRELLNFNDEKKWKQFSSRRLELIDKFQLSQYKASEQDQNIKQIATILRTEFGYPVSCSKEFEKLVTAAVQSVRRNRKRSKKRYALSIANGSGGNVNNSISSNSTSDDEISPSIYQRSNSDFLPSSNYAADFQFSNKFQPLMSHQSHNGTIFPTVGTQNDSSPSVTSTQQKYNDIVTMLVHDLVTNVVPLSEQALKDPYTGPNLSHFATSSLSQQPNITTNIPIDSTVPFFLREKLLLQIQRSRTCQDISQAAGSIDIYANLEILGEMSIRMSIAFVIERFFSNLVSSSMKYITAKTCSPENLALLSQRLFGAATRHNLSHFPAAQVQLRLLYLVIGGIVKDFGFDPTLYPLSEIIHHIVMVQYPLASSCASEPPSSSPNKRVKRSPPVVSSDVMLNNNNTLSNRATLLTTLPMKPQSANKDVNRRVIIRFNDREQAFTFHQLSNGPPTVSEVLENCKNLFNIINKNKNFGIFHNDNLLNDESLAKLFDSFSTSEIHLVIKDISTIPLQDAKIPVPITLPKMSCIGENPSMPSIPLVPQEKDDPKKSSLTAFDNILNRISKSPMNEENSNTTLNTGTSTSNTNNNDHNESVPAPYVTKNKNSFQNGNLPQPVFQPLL
Method in brief: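 Yeast transcription factors carrying a GST tag, as full-length proteins or DNA-binding domains, were produced by PURExpress in vitro transcription/translation. About 100-200 nM protein was applied to universal all-10-mer Agilent arrays, double-stranded by primer extension on fresh or once-stripped slides. Bound protein was detected with fluorescent anti-GST, and scans were normalised with masliner. The Universal PBM Analysis Suite gave each ungapped eight-base word, pooled with its reverse complement, an E-score, a modified Wilcoxon-Mann-Whitney statistic.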

Sequence	PBM E-score
GCCTGGTA	-0.109
CATGGAGG	-0.101
CTAGCGCC	-0.193
CATCCTGC	0.0558
GCGATTAC	0.0647
GACCGCGA	-0.0638
CCACTCAC	0.177
CCTTAATA	-0.0315
GATGCATA	-0.00795
ACTGGTGA	0.122
CCCCCCCA	-0.185
CACTCTCC	0.0076
CAAGATAG	0.0565
GGTACAGA	0.0603
CGGAAAAG	-0.0336
AACCAGCA	0.037
CTAGAGCC	-0.126
CCACAACC	0.0211
AAGAGAGT	-0.117
GCGTGAGA	-0.0971
ATTTTTGC	-0.157
AACCTTTC	-0.331
ATTGTCGG	0.13
ATACTGCG	-0.00348
AGTCACAA	0.391

Sequence	PBM E-score
CATGGTCC	0.109
CCCGACAC	-0.0659
CAAGTTGG	-0.0134
ATCCCATA	-0.0213
AAGCGCGG	0.062
ATGAGGAA	-0.0839
CCAAGCGA	-0.012
CATGCGGC	0.0506
ATAGCAAA	-0.0488
GTATGAGA	0.0299
GCAAGCCC	0.144
CACGCAGA	-0.0828
TATGGGAA	-0.0572
AAAAACGA	-0.0586
ACTACAAC	0.212
TCTCCGCA	-0.0442
CACATGGG	0.0571
AGCATCCC	-0.216
AGACCGAT	0.00577
GTTGGGGA	0.158
AGTGGGTA	0.156
CAGGTACC	-0.0628
AGTCTGCG	-0.0483
GAAGCGTC	-0.157
GAACGGGC	-0.202

Sequence	PBM E-score
CCTCCTCG	-0.0913
GCGAGACC	-0.049
ACTTGTTC	-0.235
GCTGACCA	0.166
GAAGAACC	0.0141
AATGAATT	0.0558
AGCACGAG	0.138
GGTATCAA	-0.00548
CGAGAACG	-0.141
AGGGATCC	-0.151
ATGTCGCG	-0.0514
CCTCCCGC	0.065
ACAGGACC	0.00265
AGAGTCCC	-0.205
ATGTGCAC	-0.14
AAGCAGCT	-0.17
CTGCTGCC	-0.0622
GGTAGACA	0.156
ATCTCTTA	-0.119
AACCGTGG	-0.0687
ACCCAGTA	0.00795
CCGCGCGC	0.258
AATAGAGA	-0.166
GCATAGAA	-0.00043
CAAGCGAG	0.126

Sequence	PBM E-score
CATCCCCA	0.111
ACGAACGG	0.085
GTGGAGTA	0.0296
ACGTCTCG	-0.0249
CATTAATA	0.139
AGACGCCA	-0.102
GCGATCCA	0.172
TACCTTCA	-0.114
CCAGCCAG	-0.0814
AGATATTA	0.0158
CATGATCA	0.197
TAAGAGTA	-0.137
CCAGAGGC	-0.133
CTGCATTA	-0.0315
GGACTGGA	-0.0542
AGGCTATA	-0.0453
ACCTGGGG	-0.148
CCGCTTAA	-0.13
CGACGCCC	0.0794
CATCAGCC	0.0877
GATCAAGA	0.0476
AATGAAAC	0.105
AACGCGGG	0.223
CACCGAGG	-0.113
AAACTCGG	-0.0264

Sequence	PBM E-score
ACCTCCTG	-0.139
ACCCTGGG	0.12
TGTCGACA	-0.113
AGGTGAAG	-0.0547
GTACATAA	-0.0295
GCCGCCCC	0.0606
ATCGGCAA	-0.187
ACTGCAGC	-0.0864
ACCGCCAC	0.0902
AAGGAATT	-0.162
AAAGAGTC	0.0469
AAGTGTCT	0.00039
ATTTACAG	-0.131
ACAGATTC	-0.0532
GCACCGCA	0.0151
CAACCATC	0.0512
GGTTCGAC	0.202
ACTACGCA	0.0966
CAGAGAGC	-0.0972
AACGGGCC	-0.204
TGACACAA	0.0494
AATGTGTC	0.0746
CCATCCCA	0.0849
CGTTCTCA	-0.134
CCCTTAGA	-0.275

Sequence	PBM E-score
ACAAATTA	0.0867
ATGGGTCA	0.263
AGTGCATA	0.0602
ATCTCCCC	0.0454
ATGGGAGC	0.00189
TAGCCATA	0.143
ACGCTAGC	-0.322
CAACTGGA	-0.121
GATGCGCC	0.0507
AAGAATTG	-0.134
TGAGCCAA	-0.0117
GACACACC	0.28
CTATGCAC	0.0285
AGAATTAC	-0.0111
GCTAGAAA	-0.0866
CTCACACA	0.299
GAATGTCA	-0.0258
CCAGACCA	0.0519
AGCGATCC	-0.0495
GCTCTGGA	-0.0124
AGCTCCCT	-0.235
AACGATGT	0.0466
CAGGCATG	0.114
CAGCGACG	0.0816
GCTAGACC	-0.0837

Sequence	PBM E-score
GTTACGTA	-0.216
CATAGAAA	0.102
ATGCAGGA	0.0825
CCAATTCA	0.115
CTTAAGTA	-0.199
GGTAAATA	-0.058
ACGGAGGG	-0.0562
CCTGTACA	-0.232
AGTTACCA	0.00368
AGCATGGC	-0.0213
CATGTGCA	-0.19
CGCAAGAC	-0.214
GCGGGATA	0.0896
AGGAGACG	-0.176
CCACACAG	0.165
ATACATAA	0.135
GCCATATA	-0.0482
TAAGTCCA	-0.214
ACACAAGT	-0.0792
ATTCTCTA	-0.11
CCAGATGC	0.121
GACGCCCC	-0.136
